Results as given in PubChem BioAssay AID463173 (ICCB-Longwood Screening Facility, Harvard Medical School, 2010).
The campaign covered roughly 52,000 compounds. About 1,700 (3.3%) were called active. Cut-off read from the data, not from the text of the source: active = survival mostly below about 52% (no sharp cut-off); inactive = mostly above about 56%. This is one part of the list.

system: Wild type; assay: S. aureus survival, RN4220 and DeltatarO strains – OD600, teichoic acid synthesis inhibitors, primary screen (AID 463173); settings: S. aureus RN4220 wild type/DeltatarO growth, OD600, 18 h, hits give low values, screened at 18.75 µg/mL (by protocol)

Row | Compound | survival
1 | Cc1ccccc1CN1CCC(CNc2ncnc3onc(-c4ccc(F)cc4)c23)CC1 | inactive: 129%
2 | CCOC(=O)c1c(C)c(-c2ccccc2)n(CC(=O)Nc2cc(C)ccc2OC)c1C | inactive: 87%
3 | CCc1cccc(-n2nnc(-c3nsc(NC(=O)c4cccs4)n3)c2C)c1 | active: -6%
4 | CC(=O)Nc1ccc2nc(-c3cc(C)ccc3C)[nH]c2c1 | inactive: 143%
5 | Cc1cc(N2CCC(C(N)=O)CC2)nc(-c2ccccc2)n1 | inactive: 101%
6 | CCCCN(CC)CCNC(=O)c1cn(C)c(=O)c2c1c1ccccc1n2C | inactive: 82%
7 | Cc1ccc(OCc2ccc(-c3nc(C#N)c(NCc4cccnc4)o3)o2)cc1 | inactive: 62%
8 | COc1ccc(S(=O)(=O)NCC(c2ccco2)N2CCN(c3ccc(F)cc3)CC2)cc1C (stereo unspecified) | inactive: 70%
9 | COc1ccc(NC(=O)CCc2c(C)nc3nc(CNC(=O)OC(C)(C)C)nn3c2C)cc1OC | inactive: 98%
10 | O=C(Nc1ccc(F)c(Cl)c1)C1CCCN(c2cnccn2)C1 (stereo unspecified) | inactive: 86%
11 | COc1ccc(CC2C(=O)Nc3ccc(Br)cc32)cc1OC (stereo unspecified) | inactive: 75%
12 | CCc1ccc(NC(=O)CC2C(=O)N(c3cccc(C)c3)C(=O)N2Cc2ccco2)cc1 (stereo unspecified) | inactive: 128%
13 | CCc1ccccc1NC(=O)N1CCN(C(=O)c2nsc3ccccc23)CC1 | active: -1%
14 | CC(=O)N1CCCC1c1nc2ccccc2n1Cc1ccccc1C (stereo unspecified) | inactive: 97%
15 | CC1CCN(S(=O)(=O)c2ccc3c(ccn3CCC(=O)NCc3ccc(N(C)C)cc3)c2)CC1 | inactive: 78%
16 | COc1cccc2cc(C(=O)NCCc3c(C)[nH]c4ccc(F)cc34)c(=O)oc12 | inactive: 83%
17 | CCNc1nc(NC(C)(C)C)nc(Oc2ccc(=O)n(C)n2)n1 | inactive: 72%
18 | CCS(=O)(=O)N1CCc2cc(C(=O)NCCc3ccc(OC)cc3)ccc21 | inactive: 116%
19 | CC1CCN(S(=O)(=O)c2nnc(NC(=O)c3cccc(Br)c3)s2)CC1 | inactive: 33%
20 | COc1cc(NC(=O)CC(C)n2nc(C)cc2C)cc(OC)c1 (stereo unspecified) | inactive: 92%
21 | O=C(NCCc1ccccc1)C(=O)NCC(c1ccc2c(c1)OCO2)N1CCOCC1 (stereo unspecified) | inactive: 70%
22 | COc1cc(NC(=O)C(CCSC)NS(=O)(=O)c2ccc3c(c2)oc(=O)n3C)cc(OC)c1 (stereo unspecified) | inactive: 65%
23 | COC(=O)c1cn(C(=O)OC)c2ccccc12 | inactive: 107%

Row | Compound | survival
24 | Cc1ccc(-c2nnc3ccccc3c2C(=O)Nc2ccccc2F)cc1 | inactive: 86%
25 | Cc1ccc(NC(=O)Cn2c(=O)n(CCC(=O)NCc3ccccc3Cl)c(=O)c3ccccc32)cc1 | inactive: 153%
26 | CCOc1ccccc1C(=O)N(Cc1ccccc1F)C1CCS(=O)(=O)C1 (stereo unspecified) | inactive: 85%
27 | COc1cc2[nH]c(=O)c(C(=O)NC3CCCC3)c(O)c2cc1OC | inactive: 93%
28 | COc1ccc(Cl)cc1NC(=O)CSc1cn(CC(=O)N2CCCCCC2)c2ccccc12 | inactive: 91%
29 | O=C(CCC1CCCC1)N1CCCC(c2nc(-c3ccc(F)cc3)no2)C1 (stereo unspecified) | inactive: 111%
30 | S=C1N(CN2CCOCC2)CCN1CN1CCOCC1 | inactive: 108%
31 | O=C(NCc1ccccn1)C1C2C=CC(C2)C1C(=O)Nc1ccc(F)cc1 (stereo unspecified) | inactive: 110%
32 | COc1ccccc1NC(=O)CSc1nc(-c2ccccc2F)nc2cc(=O)[nH]n12 | inactive: 73%
33 | CC(=O)Nc1ccc(NC(=O)C(C)C)nc1 | inactive: 109%
34 | Cc1ccc(-n2c(=O)c3c(c4cc(C)ccc4n3C)n(CC(=O)NCc3ccccc3)c2=O)cc1 | inactive: 91%
35 | Cc1ccc2occ(CC(=O)N(Cc3ccc(C(C)C)cc3)C3CCS(=O)(=O)C3)c2c1 (stereo unspecified) | inactive: 65%
36 | CC(C)(C)c1ccc(C(=O)N2CCC(c3nc4ccccc4o3)CC2)cc1 | inactive: 102%
37 | O=C(CNS(=O)(=O)c1ccc(Cl)cc1)NC1CCCC1 | inactive: 103%
38 | O=C(CCC1N=C2c3ccccc3N=C(SCc3ccccc3F)N2C1=O)NCc1ccc(F)cc1 (stereo unspecified) | inactive: 73%
39 | COc1ccc(NC(=O)c2c(NCc3cccc(OC)c3)sc3c2CCCC3)cc1 | inactive: 88%
40 | CC1=C(c2ccc(Cl)cc2)S(=O)(=O)N=C1N1CCC(C(=O)NCc2ccccc2F)CC1 | inactive: 81%
41 | COc1ccc(-c2onc(C)c2C)cc1S(=O)(=O)NCC1CCN(Cc2cccc(F)c2)CC1 | inactive: 76%
42 | COc1ccc(CCNc2nc3c(-c4cccc(C)c4)nnn3c3ccccc23)cc1OC | inactive: 129%
43 | Cc1cccc(N2CCN(C(=O)Cn3nc(Cc4cccnc4)c4ccccc4c3=O)CC2)c1C | inactive: 92%
44 | FC(F)(F)c1cccc(N2CCN(CCN3CCOCC3)CC2)c1 | inactive: 109%
45 | Clc1cccc(-n2ncc3c(NCCCn4ccnc4)ncnc32)c1 | inactive: 82%
46 | COc1ccc(NC(=O)Cn2c(=O)ccc3cc(S(=O)(=O)N4CCCC4)ccc32)cc1Cl | inactive: 124%

Row | Compound | survival
47 | COc1ccc(CNC(=O)Cn2c(=O)cc(-c3ccccc3)c3c(C)nn(C)c32)cc1 | inactive: 73%
48 | COc1ccc(S(=O)(=O)N(CC(=O)Nc2cccnc2)c2ccc(Cl)cc2)cc1 | inactive: 63%
49 | CCOc1ccccc1CNC(=O)c1cccn1-c1nnc(N2CCCC2)s1 | inactive: 75%
50 | Cc1ccccc1NC(=O)c1c(C)oc2ccc(O)c(CN3CCN(C)CC3)c12 | inactive: 82%
51 | O=C(O)C1CCCN1S(=O)(=O)c1ccc2ccccc2c1 (stereo unspecified) | inactive: 117%
52 | CCc1ccc2oc(C(=O)Nc3ccccc3C(=O)OC)cc(=O)c2c1 | inactive: 87%
53 | CC(C)(C)c1ccc(-c2nc(SCC(=O)Nc3ccccc3F)n3[nH]c(=O)cc3n2)cc1 | inactive: 87%
54 | Cc1ccccc1CSc1cn(CC(=O)N2CCCCCC2)c2ccccc12 | inactive: 81%
55 | Cc1cccn2c(=O)c(C(=O)NCCc3ccc(S(N)(=O)=O)cc3)c(O)nc12 | inactive: 61%
56 | O=C(Nc1ccc(Cl)c(C(F)(F)F)c1)C1CCN(S(=O)(=O)c2cccc3nonc23)CC1 | inactive: 90%
57 | COc1ccc(CNC(=O)COCc2cc(-c3cccs3)on2)cc1 | inactive: 94%
58 | O=C(O)Cn1ccc2cc(S(=O)(=O)N3CCCCCC3)ccc21 | inactive: 81%
59 | O=C(CCOc1ccccc1)N(Cc1cccnc1)c1nc2c(F)cccc2s1 | inactive: 82%
60 | CCCCn1c(NCc2ccc(N(C)C)cc2)nc2ccccc21 | inactive: 70%
61 | Cc1ccccc1CSc1nc2ccsc2c(=O)n1CCC(C)C | inactive: 74%
62 | COc1ccccc1NC(=O)c1oc2ccccc2c1NC(=O)C1CCCCC1 | inactive: 36%
63 | CC1C(=O)N2CCCc3cc(S(=O)(=O)N4CCC(C(N)=O)CC4)cc1c32 (stereo unspecified) | active: -3%
64 | Cc1ccc2cc(CN(C(=O)c3cccc(Cl)c3)c3ccccc3)c(=O)[nH]c2c1 | inactive: 84%
65 | CCCSCCCNC(=O)c1ccc2c(c1)sc1nc(-c3ccc(OCC)cc3)cn12 | inactive: 85%
66 | COc1ccc(CCn2nnc(-c3ccc(NC(C)=O)c(Cl)c3)n2)cc1 | inactive: 107%
67 | COc1cccc(CNC(=O)c2cnc(N3CCCCC3)c3ccccc23)c1 | inactive: 91%
68 | COc1ccccc1Nc1nn2c(=O)c3ccc(C(=O)NCCC4=CCCCC4)cc3nc2s1 | inactive: 77%
69 | N#Cc1cc[n+](CC(=O)c2cccs2)cc1 | inactive: 102%

Row | Compound | survival
70 | O=C(NCc1ccccc1F)C1CCN(c2nn3cc(-c4ccc(F)cc4)nc3s2)CC1 | inactive: 128%
71 | CN1c2ccc(Cl)cc2-c2nc(SCC(=O)NCc3ccccc3)ncc2S1(=O)=O | inactive: 73%
72 | CCNC(=S)N1CCN(Cc2ccccc2)CC1 | inactive: 110%
73 | Cc1ccc(OCc2ccc(-c3nc(C#N)c(NCc4ccccc4Cl)o3)o2)cc1 | inactive: 125%
74 | Cc1ccc(Cn2c(C(=O)O)c(CNC3CCCC3)c3ccc(C)cc32)cc1 | inactive: 83%
75 | COc1ccc(C)cc1NC(=O)C(Cc1ccccc1)NS(=O)(=O)c1cccs1 (stereo unspecified) | inactive: 72%
76 | O=C(NC1CC(=O)N(c2cccc(F)c2)C1)c1cc2ccccc2o1 (stereo unspecified) | inactive: 73%
77 | Cc1cc(C)cc(-n2c(SCC(N)=O)nc3c([nH]c4ccccc43)c2=O)c1 | inactive: 75%
78 | O=C(Nc1ccccc1C(F)(F)F)N1CCC(CN2CCc3ccccc3C2)CC1 | inactive: 63%
79 | Cc1cc(C)nc(Nc2ccc(O)cc2)n1 | inactive: 95%
80 | CCOC(=O)c1ccc(CN(Cc2ccccc2C)S(=O)(=O)c2ccc(F)c(C)c2)cc1 | inactive: 66%
81 | COCCNc1oc(/C=C/c2ccc(F)cc2)nc1C#N | inactive: 84%
82 | Cc1ccc2nc(-c3cccc(NC(=O)c4cccc5ccccc45)c3)oc2c1 | inactive: 65%
83 | CCC(=O)N1CCc2cc(Br)cc(S(=O)(=O)CCC(=O)NCc3cccc(OC)c3)c21 | inactive: 60%
84 | CCCCOc1ccc(-c2nnn(C(C)(C)C(=O)O)n2)cc1 | inactive: 117%
85 | COc1ccc(Nc2ncnc3c2cnn3-c2ccc(C)cc2)cc1Cl | inactive: 133%
86 | Cc1ccc(-n2c(=O)c3c(cnn3C)n(CC(=O)Nc3ccccc3C)c2=O)cc1 | inactive: 73%
87 | CCOc1ccc(-n2c(SCC(=O)NC3CCCCC3)nc3c([nH]c4ccccc43)c2=O)cc1 | inactive: 83%
88 | COc1ccc(NC(=S)N(Cc2ccco2)Cc2cc3cc(C)c(C)cc3[nH]c2=O)cc1 | inactive: 103%
89 | Cc1ccc(CNC(=O)CCCn2c(=O)[nH]c3ccc(Br)cc3c2=O)cc1 | inactive: 103%
90 | Cc1cccc(Cn2cc(S(=O)(=O)c3cccc(C)c3)c(=O)c3cc(F)c(N4CCOCC4)cc32)c1 | inactive: 64%
91 | COc1ccc2nc(C)cc(Nc3ccc(Cl)c(Cl)c3)c2c1 | inactive: 75%
